Results as given in PubChem BioAssay AID652104 (National Center for Advancing Translational Sciences (NCATS), 2013).
Hit rate of the full screen: of about 410,000 compounds, about 7,200 (1.8%) were called active. The inconclusive results got no clear call from the source; some entries with a clear call stand among them for comparison. Calls come from the whole dose curve; as a rule, active = well fitted activation curve with a large enough effect; inconclusive = small, poorly fitted or top-dose-only effect, or another doubt; inactive = no such curve, though single readings can be large or run the other way. No potency is given beside an inconclusive call; the fits are too rough.

Assay: qHTS of TDP-43 Inhibitors; note: nearly all actives have a fitted effect of over 50% in size; for growth rescue (activation): % of control where 0% means no effect
Conditions: TDP-43 expressing yeast growth rescue, BacTiter-Glo, 24 h; growth rescue (activation): at 46.1 µM (top of the series) unless noted
Summary of the method: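 Yeast expressing TDP-43 (pregrown in raffinose, seeded at OD600=0.02 in galactose medium) exposed to compounds 24 hr at 30 deg C. Growth read by BacTiter-Glo luminescence; rescue of toxicity appears as increased signal.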
Potency is the fitted concentration of half-maximal effect; tags give direction and shape of the fitted curve.

Row | Compound | Potency | growth rescue (activation)
1 | Cn1nc(C(C)(C)C)cc1NC(=O)C1(C)CCN1C(=O)C1(c2ccccc2)CCCC1 (centres undefined) | active: 35.5 µM | –
2 | O=C(Nc1ccc2c(c1)CCC2)c1ccc(Br)o1 | inactive | –
3 | COc1cccc(-c2cc(NC(C)=O)c3ncc(-c4cccc(C(C)=O)c4)n3c2)c1 | inconclusive [activator, partial curve] | –
4 | CCCS(=O)(=O)NCCc1sc2nc(-c3ccc(Cl)cc3)nn2c1C | inconclusive [activator, partial curve] | –
5 | O=[N+]([O-])c1ccc(OCc2cnc(Cl)s2)c([N+](=O)[O-])c1 | active: 11.2 µM | –
6 | Cc1nc2ccccc2c2oc(C(=O)NCc3ccc4c(c3)OCO4)cc12 | inconclusive [activator, full curve] | –
7 | Cc1ccc(CNC(=O)CSc2nc3ccsc3c(=O)n2Cc2ccccn2)cc1 | inactive | –
8 | Cc1ccc(Cn2c(C)c(C(=O)NCc3ccc4c(c3)OCO4)sc2=O)cc1 | active: 25.1 µM | –
9 | O=C1CC2(CCOCC2)Oc2ccc3ccccc3c21 | inconclusive [activator, single point] | –
10 | COc1cccc(C2C=C(c3ccc(C)cc3)Nc3c(C(=O)Nc4ccc(F)cc4)cnn32)c1OC (centres undefined) | inconclusive [activator, partial curve, poor fit] | –
11 | O=C(Nc1ccccc1C(F)(F)F)N1Cc2ccccc2Oc2ncccc21 | inconclusive [activator, partial curve, poor fit] | –
12 | Cn1cc(C(=O)c2ccc(Cl)cc2Cl)cc1C=O | inactive | –
13 | COc1ccccc1OCCn1c(C)c(C=O)c2ccccc21 | inconclusive [activator, single point] | –
14 | CCCN(CC(=O)Nc1ccccc1Br)CC(=O)Nc1ccc(F)c(F)c1F | inconclusive [activator, full curve] | –
15 | CCN1CCN(C(c2cccc(OC)c2)c2c(O)cc(C)n(Cc3ccco3)c2=O)CC1 (centres undefined) | inactive | –
16 | CC1=C(C)CC(C(=O)Nc2nc(-c3ccc(C)cc3C)c(C)s2)C(C(=O)O)C1 (centres undefined) | inconclusive [activator, full curve] | –
17 | COc1ccc(-n2cnnc2SCC(=O)N2CCN(c3ccccc3)CC2)cc1 | inactive | –
18 | COc1ccc(CCN(C)C(=O)CSc2nnc(C3CC3)n2N)cc1OC | inactive | –
19 | Cc1cccc2c(C(=O)n3cccn3)cc(-c3ccccc3Cl)nc12 | inconclusive [activator, partial curve] | –
20 | COc1ccc(NC(=O)N2CCCc3cc(C)ccc32)c(OC)c1 | inconclusive [activator, partial curve] | –
21 | Fc1ccc(CNC(=S)Nc2ccccc2F)cc1 | inconclusive [activator, single point] | –
22 | COc1ccccc1NCC(O)Cn1c2ccccc2c2ccccc21 (centres undefined) | – | inconclusive: -38.9% [activator]
23 | CCOC(=O)C(C)N1C(=O)S/C(=C/c2cc(C)n(-c3ccncc3)c2C)C1=O (centres undefined) | inconclusive [activator, single point] | –

Row | Compound | Potency | growth rescue (activation)
24 | COc1ccccc1N1CCN(S(=O)(=O)c2c(C)ccc3nsnc23)CC1 | inconclusive [activator, single point] | –
25 | O=C(/C=C/c1ccc(Br)cc1)NC(=S)NNC(=O)c1ccco1 | active: 5.62 µM | –
26 | CCOc1ccc(C(=O)CCC(=O)Nc2ccccc2C)cc1 | inconclusive [activator, partial curve] | –
27 | COc1ccc(-c2ccc3[nH]c4c(c3c2)CCN2C[C@@H]([C@H](C)O)[C@@H](N(C)C(=O)Nc3cc(Cl)cc(Cl)c3)C[C@@H]42)cc1 | inconclusive [activator, single point] | –
28 | CCCCOCCCNC(=O)C[C@@H]1C[C@@]2(C(=O)OC)CC(C)(C)CC=C2N(Cc2cccc3ccccc23)C1=O | inactive | –
29 | COc1cccc(C2CC(c3cccs3)=NN2C(=O)c2ccco2)c1O (centres undefined) | active: 25.1 µM | –
30 | CCOC(=O)c1cc(-c2ccc(OC)cc2)n(CCC(=O)NC2CCC(C)CC2)c1C (centres undefined) | inactive | –
31 | COC(=O)c1[nH]c2cc(OC)c(OC)cc2c1NC(=O)c1cccc(OC)c1 | inconclusive [activator, partial curve, poor fit] | –
32 | CCc1c(C)sc(NC(=S)N2CCN(C(=O)C3CCCO3)CC2)c1C(=O)OC (centres undefined) | inconclusive [activator, single point] | –
33 | O=C1[C@@H]2C(c3cccnc3)=NO[C@@H]2C(=O)N1c1ccc(Br)cc1 | – | inconclusive: -89.6% [activator]
34 | CC(=O)c1ccc(NC(=O)CCCN2C(=O)C(c3ccccc3)Oc3cccnc32)cc1 (centres undefined) | inconclusive [activator, single point] | –
35 | N#Cc1c(Cl)cccc1Oc1ccc(S(=O)(=O)Nc2ccccc2)cc1 | inconclusive [activator, single point] | –
36 | N#Cc1c2ccc(O)cc2n2ccccc12 | inconclusive [activator, single point] | –
37 | Cc1cccc(C)c1NC(=O)N1CCN(c2nc3ccccc3s2)CC1 | inconclusive [activator, full curve] | –
38 | Cc1ccc(-c2ocnc2C(=O)Nc2ccccc2C(=O)N2CCCC2)cc1 | inconclusive [activator, partial curve] | –
39 | O=C(COC(=O)c1ccccc1[N+](=O)[O-])NCCCc1ccccc1 | inconclusive [activator, partial curve, poor fit] | –
40 | CCOC(=O)c1csc(NC(=O)c2cccs2)n1 | inconclusive [activator, partial curve] | –
41 | CCCCCNC1=CC(=O)CC(c2ccccc2)C1 (centres undefined) | inactive | –
42 | Cc1cc(N2CCCCC2)n2ncc(-c3ccc(Cl)cc3)c2n1 | active: 14.1 µM | –
43 | Cc1cc([N+](=O)[O-])cc(/C=N\NC(=O)C2COc3ccccc3O2)c1O (centres undefined) | inconclusive [activator, full curve] | –
44 | CC(=O)Nc1ccc(Nc2nc(C)c([N+](=O)[O-])c(N(C)c3ccccc3)n2)cc1 | inconclusive [activator, single point] | –
45 | CCCCN(C)c1nc(-c2ccco2)c2c(c1C#N)CC(C)(C)OC2 | active: 20 µM | –
46 | COc1ccc(CNC(=O)c2ccc(-c3nc(CSc4ccccc4)c(C)o3)cc2)cc1 | inactive | –

Row | Compound | Potency | growth rescue (activation)
47 | Nc1ncnc2c1ncn2[C@@H]1O[C@H](C(=O)NCc2ccc3c(c2)OCO3)[C@@H](O)[C@H]1O | inconclusive [activator, full curve, poor fit] | –
48 | COc1ccc(OC)c(NS(=O)(=O)c2ccc(Cl)s2)c1 | inconclusive [activator, single point] | –
49 | CCc1ccc(CN(C)C(=O)c2cc(COc3ccc(-n4cncn4)cc3)on2)cc1 | inconclusive [activator, partial curve] | –
50 | CCc1cccc(C)c1NC(=O)COC(=O)C1CC(=O)N(CCc2ccc(OC)c(OC)c2)C1 (centres undefined) | inactive | –
51 | CC(=Nc1ccc(O)cc1)c1sc2ccccc2c1O | inconclusive [activator, full curve] | –
52 | CN(C)c1nc(NCc2ccccc2)nc(SCC(=O)Nc2ccccc2Cl)n1 | inconclusive [activator, partial curve] | –
53 | CCOC(=O)c1cnc2c(OC)cccc2c1N1CCN(c2ccccc2F)CC1 | active: 11.2 µM | –
54 | S=c1[nH]nc(COc2ccccc2)n1/N=C/C(Cl)=C/c1ccccc1 | inconclusive [activator, full curve] | –
55 | Cc1nc2ncnn2c(N2CCN(c3cccc(C(F)(F)F)c3)CC2)c1C | inconclusive [activator, single point] | –
56 | CCOC(=O)c1c(NC(=O)C(C)Oc2ccccc2F)sc(C(C)=O)c1C (centres undefined) | inactive | –
57 | O=C(NC1CCCC1)c1ccc2c(c1)N(Cc1c(F)cccc1Cl)C(=O)c1ccccc1S2 | inactive | –
58 | O=C(Nc1nnc(-c2ccc3c(c2)CCCC3)o1)C1COc2ccccc2O1 (centres undefined) | active: 17.8 µM | –
59 | Brc1cccc(-c2nnc(SCc3nc4ccccc4[nH]3)o2)c1 | inconclusive [activator, single point] | –
60 | O=C(CNc1ccccc1C(=O)O)c1ccccc1 | inconclusive [activator, partial curve] | –
61 | C=C1C[C@H]2[C@@H]3C=C(C)C4=CC(=O)CC[C@]4(C)[C@H]3CC[C@]2(C)[C@@]1(OC(C)=O)C(C)=O | inconclusive [activator, full curve, poor fit] | –
62 | COc1ccc(OC)c(NC(=O)CCCOc2cc(=O)n(C)c3ccccc23)c1 | inactive | –
63 | CC1CN(C(=O)CCC(=O)NC2CCCCC2)c2ccccc2S1 (centres undefined) | inconclusive [activator, partial curve] | –
64 | COc1cccc(NC(=O)CSC2=Nc3ccccc3C3=NC(CCC(=O)NC4CCCCC4)C(=O)N23)c1 (centres undefined) | inactive | –
65 | Cc1cc(C)n(C(=O)CCNC(=O)c2ccccc2Br)n1 | inconclusive [activator, single point] | –
66 | O=C(Nc1ccccc1Cl)c1cccc(COc2cc(Cl)ccc2Cl)c1 | inconclusive [activator, partial curve, poor fit] | –
67 | Cc1ccc(-n2c3c(c(=O)[nH]c2=O)C(NC(=O)C(C)(C)C)(C(F)(F)F)C(=O)N3)cc1 (centres undefined) | inactive | –
68 | CCc1ccc(NC(=O)Nc2ccsc2C(=O)OC)cc1 | inconclusive [activator, partial curve] | –
69 | COC(=O)c1c(-c2cccc(OC)c2)csc1N | inconclusive [activator, partial curve] | –
